Screen size: about 150,000 compounds; about 540 (0.36%) showed an effect of 50% or more. The list shows a part of the results.
test system: Plasmodium falciparum; assay: Primary screen in NF54 nanoGlo assay, in single point, at 2uM, 72h; a lower Z score goes with more inhibition; format: functional, Erythrocyte; conditions: timepoint 72 hour

SMILES | % Inhibition [%] | Z score
COc1ccc2c(c1)Oc1ccccc1N=C2N1CCN(S(=O)(=O)c2ccc(Cl)cc2)CC1 | 3 | -0.33
COCC(=O)N1CCN(C(=O)c2ccccc2Cl)[C@H]2CS(=O)(=O)C[C@H]21 | -9 | 1.69
COc1cc(OC)c(CN2CCN(C)[C@@]3(CCNC(=O)CC3)C2)cc1Cl | 1 | -0.17
O=C(N[C@@H](c1ccsc1)c1cccs1)c1ccc2nsnc2c1 | -8 | 1.44
Cc1ccc(C(=O)N[C@@H](Cc2c[nH]cn2)C(=O)O)n1C(F)F | 10 | -1.74
COCC#CCN(c1ccc(C(C)=O)cc1)S(C)(=O)=O | 0 | -0.06
CC(C)[C@H](CNCc1cn(C(C)(C)C)nn1)c1cccnc1 | 5 | -0.75
CCc1ccccc1/N=C(\NCc1c(C)nn(CC)c1C)NC(=O)c1ccccc1 | -9 | 1.53
Cc1cc(C)cc(NC(=O)C(C)(C)C)c1 | -14 | 2.59
CCOc1cc(CNc2cncc(-n3nc(C)cc3C)n2)ccn1 | -1 | 0.15
CN(CC(=O)N[C@H]1CCS(=O)(=O)C1)C1CCCCCCC1 | -10 | 0.89
CCC(CC)(CO)CN(C)C(=O)c1cccc2c1CCC2=O | 0 | 0.01
Cn1cc(CNCc2c(C(=O)N3CCCCCCC3)nc3ccc(Cl)cn23)cn1 | -14 | 2.38
CCOc1ccc(CN2CCN(C(=O)c3cccs3)CC2)cn1 | 0 | -0.05
Cc1ccc(CN[C@H]2CC(C)(C)Cc3nc(N4CCOCC4)ncc32)s1 | -2 | 0.27
Cc1nnsc1C(=O)NCCn1nc(-c2ccccn2)n(C)c1=O | 5 | -0.7
CC(C)Oc1nc(-c2cccs2)n(-c2cccc(NC(=O)c3ccc(F)cc3)c2)n1 | -15 | 1.58
COc1ccc(-c2cccc(C(=O)NCCc3n[nH]c(=O)n3C)c2)cc1C | -7 | 0.86
Cn1c(-c2nccn2CCc2c[nH]c(=O)[nH]c2=O)nc2ccccc21 | -7 | 1.03
CCN1CCC(N2C[C@H](COc3ccc(F)cc3)OCC2=O)CC1 | -10 | 1.25
Cc1ccccc1C(=O)N(Cc1cccc(F)c1)c1ccc(CC(=O)N(C)Cc2ccccc2)cc1 | -9 | 1.19
CCO[C@H]1COC[C@@H]1NC(=O)c1cnc(N)s1 | -1 | 0.17
CCc1c(C)nc(-c2cccc(C)c2)nc1N1CCN(C(=O)Nc2ccccc2OC)CC1 | -2 | 0.27
CC(C)c1nc(N2CCOc3c(O)cc(-c4ccc(Cl)cn4)cc3C2)no1 | -12 | 1.21
O=C(c1ccco1)N1CCOc2ccc(CN3CCOCC3)cc2C1 | -6 | 1.13
COCC(C)(C)CNC(=O)[C@]1(C)CCCCO1 | -6 | 0.97

SMILES | % Inhibition [%] | Z score
OC(c1ccccc1)(c1ccccc1)C1CCN(c2ccc3nnc(-c4ccc(F)cc4)n3n2)CC1 | -11 | 1.69
Cc1nc(C(=O)N2CCN(Cc3ccc(Cl)cc3C)CC2)n(C)n1 | -4 | 0.76
CN(C)c1nc2c(c(=O)[nH]c(=O)n2C)n1C[C@H](O)c1ccccc1 | 5 | -0.69
COc1ccccc1CNc1ccc(C(=O)N2CCN(C)CC2)cc1S(=O)(=O)Nc1cccc(C(F)(F)F)c1 | -8 | 1.51
CNC(=O)[C@@H]1C[C@@H](Nc2ncccn2)CN1Cc1ccc2c(c1)OCCO2 | -3 | 0.52
CC1CCC2(CC1)OC[C@@H](C(=O)N1CCCN(C)CC1)N2C(=O)c1ccccc1F (some centres undefined) | 1 | -0.19
CCN1CCCN(S(=O)(=O)Cc2cccc(Cl)c2)CC1 | 6 | -0.77
CC(=O)NCCN1CCc2[nH]nc(-c3ccc(-c4ccccc4)cc3)c2C1 | 6 | -1
COc1ccccc1NC(=O)Cn1nc2c(N(C)C)nc3ccccc3n2c1=O | -12 | 1.63
Cc1cc(C)n2nc(N3CCNCC3)c(S(=O)(=O)c3ccccc3)c2n1 | -3 | 0.35
O=C(CC1CCN(C(=O)c2ccc3oc(-c4ccccc4)nc3c2)CC1)NCc1ccc(F)cc1 | -2 | 0.18
COCCNCCOc1cccc(C)c1 | -16 | 2.04
CCC[C@H](NC(=O)Nc1cccc2nnc(C)cc12)c1nccn1C | 7 | -0.96
Cc1c(CNC2CCC(C)CC2)c(C(=O)O)c(C)n1Cc1cccc(F)c1 (centres undefined) | -7 | 0.92
Cc1cc(C)c(N2CC[C@H](NC(=O)c3cnn(C)c3)C2=O)c(C)c1 | 4 | -0.8
O=C(c1csnn1)N1CCOC12CCCCC2 | 3 | -0.39
O=C1CC(C(=O)N2CC3CCCCC3C2)CCN1 (centres undefined) | 33 | -3.78
O=C(NCc1ccc(Cl)cc1Cl)c1ccc(NS(=O)(=O)c2ccc(F)c(F)c2)cc1 | -7 | 0.75
O=C(c1cc(=O)[nH]c2ccccc12)N1CCC(Nc2ncccn2)CC1 | -13 | 2.65
CC(NC(=O)N(C)CC1CCN(C)C1)c1ccc(OC(F)F)cc1 (centres undefined) | -3 | 0.49
Cc1noc([C@H]2CCCN(C(=O)N3CCc4ccccc43)C2)n1 | -5 | 0.57
Cc1ccc(CN2c3ccc(F)cc3OC[C@@H]2CC(=O)NCc2ccc(Cl)cc2)cc1 | -9 | 1.22
COc1ccc(S(=O)(=O)N2CCOCC2)cc1NC(=O)C1(CC(=O)NC2CC2)CCCC1 | -6 | 0.8
Cc1cccc(C)c1OC[C@@H](O)CN1CCN(c2nccs2)CC1 | -1 | 0.08
CC(C)CNCc1ccc(C(=O)O)cc1 | -10 | 1.46
C[C@H]1[C@@H](NC(=O)C(F)(F)F)CCCN1c1ccc2nnc(C(F)(F)F)n2n1 | -1 | 0.17
